Measured values published in the RNAGym collection of RNA variant scans (doi:10.7554/elife.90254).
The source gives no read counts; variants with many changes may rest on few reads.

B1: LINE1-mini (parent)
chain: GGCAGAGCUCAACACAGCGUGGCAAAGUGGCUGUGGCUAGACUGCC

Variants of: B1
Assay: self-cleavage, relative activity (ratio to wild type); higher = more cleavage; in vitro, sequencing; the parent is a self-cleaving ribozyme

Variant | self-cleavage
GGCAGAGCUCAAAACAGCUUGGCAAAGUGUCAGUGGCUAGACUGCA [C13A G19U G30U U32A C46A] | 0.04
GGCAGAGCUCAAGUCCGCUUGGGAAAGUGGCUUUGGCUAGACUGCC [C13G A14U A16C G19U C23G G33U] | 0.03
GGCAGAGCUCAAAACAGCGUCGCAAAGUGGCUGUGGCUAAAUUGCC [C13A G21C G40A C42U] | 0.04
GGCAGAGCUCAAAACAGCGUUGCAAAGUGAUUUUGGCUAGACGGCC [C13A G21U G30A C31U G33U U43G] | 1.5
GGCAGAGCUCAAAACAGAGUGGCAAAGUGGCUGUCGCUAGACUGCC [C13A C18A G35C] | 0.06
GGCAGAGCUCAAAACAGCGUGGCAAAGUGGCGGUGCCUAGAAUGCC [C13A U32G G36C C42A] | 0.02
GGCAGAGCUCAAAACAGCGUGGCAAUGUGGCUGUUGCUAGACUGCC [C13A A26U G35U] | 1.29
GGCAGAGCUCAAAACAGCGUCGCAAAGUGUCUGUGGCUAGACUGCC [C13A G21C G30U] | 0.07
GGCAGAGCUCAAAAAAGCGUGGCAAAGUGGCUGUGGCUAGACUACC [C13A C15A G44A] | 0.04
GGCAGAGCUCAAAACAGCAUGGAAAAUUGGCUGAGGCUACACUGCC [C13A G19A C23A G27U U34A G40C] | 0.01
GGCAGAGCUCAAAACCGCUUGGCAAAGUGGUUGUGGCUAUACUGCC [C13A A16C G19U C31U G40U] | 0.01
GGCAGAGCUCAAAACAGCGUGGCAAACUGACUGUGGCUAGAUUGCC [C13A G27C G30A C42U] | 0.08
GGCAGAGCUCAAAAGAGCGUGGCAAAGUGGCUGUGGAUAGACUGCC [C13A C15G C37A] | 0.08
GGCAGAGCUCAAAACAGCGCGGCAAAGUGGAUGUGGCUAGACUGCC [C13A U20C C31A] | 0.03
GGCAGAGCUCAAAACAGCGUGGCAAAGUCGCUGUGGCUAGAAUGCC [C13A G29C C42A] | 0.04
GGCAGAGCUCAAAACAAAGUGGCAAAGUGGCUGUGGCUAGACUGCC [C13A G17A C18A] | 0.06
GGCAGAGCUCAAAUAAGCGUGGCAAAGUGGCUGUGGCUAGACUGCC [C13A A14U C15A] | 0.11
GGCAGAGCUCAAAACAGCGUGGCAAAGUAGCUGAGGCUUGACUGCC [C13A G29A U34A A39U] | 0.09
GGCAGAGCUCAAAACAGCGUGGCAAAUUGGCUGUGGCCAGACUGCC [C13A G27U U38C] | 0.52

Variant | self-cleavage
GGCAGAGCUCAAAACACCGUGGCAAAGUUGGUGUGCCUAGACUGUC [C13A G17C G29U C31G G36C C45U] | 0.14
GGCAGAGCUCAAAACAGCGUGGCAACGGGGCUGUGGCUAGACUGCC [C13A A26C U28G] | 0.07
GGCAGAGCUCAAAACAGCGUGGCAAAGUGGCGCUGGGUAGACUGCC [C13A U32G G33C C37G] | 0.01
GGCAGAGCUCAAAACAGCGUGACAAAGUGGCUGUGGCUGGACUGCC [C13A G22A A39G] | 0.05
GGCAGAGCUCAAAAUAGCGUGGCAAAGUGGCUGUGGCGAGACUGCC [C13A C15U U38G] | 0.03
GGCAGAGCUCAAAACAGCGUAGCAAAGUGGCUGUAGCUAGGCUGCC [C13A G21A G35A A41G] | 0.04
GGCAGAGCUCAAAAUAGCGUGGAAAAGUGGCUGUGGCUAGACUGCC [C13A C15U C23A] | 0.17
GGCAGAGCUCAAAACAGCGUGGUAAAGUGGCUGUGGCUAAACUGCC [C13A C23U G40A] | 0.12
GGCAGAGCUCAAAUCGGCGUGGCAAAGUGGCUGUGGCUAGACUGCC [C13A A14U A16G] | 0.03
GGCAGAGCUCAAAACAGCGUGGCAAAGUGGUUGUGGCUAGAAUGCC [C13A C31U C42A] | 0.03
GGCAGAGCUCAAAACAGCGUGGCUAAGUUGCUGUGGAUAGACUGCC [C13A A24U G29U C37A] | 0.03
GGCAGAGCUCAAAACAGCGUGGCAAAGUUGCUGUGGCUAGACUGUC [C13A G29U C45U] | 0.1
GGCAGAGCUCAAAAUAGCGUGGCAAACUGGUUUUGGCUAGCCUGUC [C13A C15U G27C C31U G33U A41C C45U] | 0.03
GGCAGAGCUCAAAACAGUGUGGCACAGUGGCUGUGGCUAGACUGCC [C13A C18U A25C] | 0.06
GGCAGAGCUCAAAACAACGUGGCAAAGUGGAUGUGGCUAGACUGCC [C13A G17A C31A] | 0.04
GGCAGAGCUCAAAACAGCGUGGCAAAGUGGCAGUGGCUAGACUAUC [C13A U32A G44A C45U] | 0.03
GGCAGAGCUCAAAACAGCGUGGCAAAGCGGCUGCGGCUAUACUGCC [C13A U28C U34C G40U] | 0.06
GGCAGAGCUCAAAACAACGUGGCAAAGCGGCUGUGGCUAGACUGCC [C13A G17A U28C] | 0.08
GGCAGAGCUCAAAACUGCGUGGCAAAGAGGCUGUGGCUAGACAGCC [C13A A16U U28A U43A] | 0.03

Variant | self-cleavage
GGCAGAGCUCAAAAUAGCAUGGCAAAGUGGCUGUGGCUAGAGUGCC [C13A C15U G19A C42G] | 0.11
GGCAGAGCUCAAAACAGCGUCGCAAAGUGGCUGUGACUAGACCGCA [C13A G21C G36A U43C C46A] | 0.03
GGCAGAGCUCAAAACAGCGAGGCAAAGUGGCUGGGGCUAGACUGCC [C13A U20A U34G] | 0.02
GGCAGAGCUCAAAACAGCGUAGCAAAGUGGCUGUGGCUAGAUUGCC [C13A G21A C42U] | 1.18
GGCAGAGCUCAAAACAGCGUGUUAAAGUGGCUGUGGCUAUACUGCC [C13A G22U C23U G40U] | 0.12
GGCAGAGCUCAAGCCAGCGUGGCCAAGUGGCUGUGGCUAGACUGCU [C13G A14C A24C C46U] | 0.04
GGCAGAGCUCAAAACAGCGUGGCAAAGUGGCUCUGGCUAGACUCCC [C13A G33C G44C] | 0.02
GGCAGAGCUCAAAACAGCGUGGCAAAGUGGCUGUGGCUCGACUGUC [C13A A39C C45U] | 0.07
GGCAGAGCUCAAAACAGCGUGGCAAAGUGGCUGGGUCUAGACUGCC [C13A U34G G36U] | 0.33
GGCAGAGCUCAAAACAGCGAGGCAAAGUGGCUGUGGCCUGACUGCC [C13A U20A U38C A39U] | 0.04
GGCAGAGCUCAAAACAGCGUGGCAAAGUGGGGGUGGCUAGACUGCC [C13A C31G U32G] | 0.01
GGCAGAGCUCAAAUCAGCGUGGCAAAGUGGCUGUGGGUAGACUGCC [C13A A14U C37G] | 0.01
GGCAGAGCUCAAAACAGCGCGGCAAAGUGGCUGUGGCUAGACUUCU [C13A U20C G44U C46U] | 0.01
GGCAGAGCUCAAAACCGCGGGGCAAAGUGGCUGAGGCCAGACUGCC [C13A A16C U20G U34A U38C] | 0.05
GGCAGAGCUCAAAACAGCGUGGCAAAGUAGCUGUGGAUAGACUGCC [C13A G29A C37A] | 0.02
GGCAGAGCUCAAAACAGCGUGGCAAAGUGGCUGUGGCUAGGCAGCC [C13A A41G U43A] | 0.03
GGCAGAGCUCAAAACAACGUGGCAAAGUGGCUGUGGCUAGACUGAC [C13A G17A C45A] | 0.03
GGCAGAGCUCAAAACAGCGUGGCAAGGUGGCUGUAGCUAGACUGCC [C13A A26G G35A] | 0.16
